± gives the standard error. This sample is rich in variants without activity.

The chains are these.
B1: glmS ribozyme (parent)
chain: AUAAAAGCGCCAGAACUACAGAAAUGUAGUUGACGAGGAGGAGGUUUAUCGAAUUUUCGGCGGAUGCCUCCAAA

Holding throughout (conditions): with glucosamine-6-phosphate
The variants in data set [1] derive from B1. Description: self-cleavage kobs at 40 uM GlcN6P; higher = faster cleavage; RNA array. An outline of the steps:
(§1)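 Barcoded ribozyme variants on sequenced MiSeq chips were transcribed in situ by E. coli RNA polymerase and followed at 37 °C through a hybridised Cy3 probe. Glucosamine-6-phosphate at 40 μM to 10 mM in HEPES/KCl/Mg(OAc)2 buffer was flowed in, and tiles were imaged over ~14 h. Signals were normalised to baseline and to non-cleaving reference variants, and per-tile medians were fit to one- or two-exponential decays to give kobs. Weighted Michaelis–Menten fits across concentrations gave kcat and KM.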

Data set [2] covers variants of B1. Description: self-cleavage kobs at 10000 uM GlcN6P; higher = faster cleavage; RNA array. Put shortly: as §1
In data set [3] the parent is B1. Description: self-cleavage kobs at 160 uM GlcN6P; higher = faster cleavage; RNA array. An outline of the steps: as §1
Variants of B1 are the subject of data set [4]. Description: self-cleavage kobs at 640 uM GlcN6P; higher = faster cleavage; RNA array. Put shortly: as §1
In data set [5] the parent is B1. Description: self-cleavage kobs at 2500 uM GlcN6P; higher = faster cleavage; RNA array. An outline of the steps:
as §1

Turning to AUAAAAGCGCCAGAACUACAGAAAUGUAGUUGACGAGGAGGAGGUUUAUCGAAUUUUCGGCGGCGGCCUCCAAA [A64C U65G], the “self-cleavage kobs at 40 uM GlcN6P” value with glucosamine-6-phosphate [1] is below 1e-05 s⁻¹. Moreover, in the data set with glucosamine-6-phosphate [2], the “self-cleavage kobs at 10000 uM GlcN6P” value was 4.42e-05 ± 1.1e-05 s⁻¹.

AUAAAAGCGCCAGAACUACAGAAAUGUAGUUGACGAGGAGGAGGUUUAUCGAAUUUUCGGCGGUGGCCUCCAAA [A64U U65G]: the “self-cleavage kobs at 40 uM GlcN6P” value with glucosamine-6-phosphate [1] was below 1e-05 s⁻¹. For the same variant, the “self-cleavage kobs at 160 uM GlcN6P” value with glucosamine-6-phosphate [3] was below 1e-05 s⁻¹.

For the variant AUAAAAGCGCCAGAACUACAGAAAUGUAGUUGACGAGGAGGAGGUUUAUCGAAUUUUCGGCGGUCGCCUCCAAA [A64U U65C], the “self-cleavage kobs at 40 uM GlcN6P” value in the data set with glucosamine-6-phosphate [1] was below 1e-05 s⁻¹. In addition, the “self-cleavage kobs at 160 uM GlcN6P” value with glucosamine-6-phosphate [3] is below 1e-05 s⁻¹.

Regarding AUAAAAGCGCCAGAACUACAGAAAUGUAGUUGACGAGGAGGAGGUUUAUCGAAUUUUCGGCGGAUGGCUAUAAA [C67G C70A C71U], the “self-cleavage kobs at 40 uM GlcN6P” value with glucosamine-6-phosphate [1] was below 1e-05 s⁻¹.

Consider AUAAACGCGCCAGAACUACAGAAAUGUAGUUGACGAGGAGGAGGUUUAUCGCAUUUUCGGCGGAUGCUUCCAAA [A6C A52C C68U], for which the “self-cleavage kobs at 640 uM GlcN6P” value with glucosamine-6-phosphate [4] is below 1e-05 s⁻¹. The “self-cleavage kobs at 2500 uM GlcN6P” value in the data set with glucosamine-6-phosphate [5] is below 1e-05 s⁻¹.

On to AUAAAAGCGCCAGAACUACAGAAAUGUAGUUGACGAGGAGGAGGUUUAUCGAAUUUUCGGCGGCUGCGUCCAAA [A64C C68G], for which the “self-cleavage kobs at 40 uM GlcN6P” value with glucosamine-6-phosphate [1] was below 1e-05 s⁻¹. Besides, the “self-cleavage kobs at 10000 uM GlcN6P” value with glucosamine-6-phosphate [2] is below 1e-05 s⁻¹.

In the case of AUAAACGCGUCAGAACUACAGAAAUGUAGUUGACGAGGAGGCGGUUUAUCGAAUUCUCGGCGGAUGCCUCCAAA [A6C C10U A42C U56C], the “self-cleavage kobs at 640 uM GlcN6P” value with glucosamine-6-phosphate [4] was below 1e-05 s⁻¹.

In the case of AUAAAAGCGCCAGAACUACAGAAAUGUAGUUGACGAGGAGGAGGUUUAUCGAAUUUUCGGCGGCUUCCUCCAAA [A64C G66U], the “self-cleavage kobs at 40 uM GlcN6P” value with glucosamine-6-phosphate [1] is below 1e-05 s⁻¹. In addition, the “self-cleavage kobs at 160 uM GlcN6P” value with glucosamine-6-phosphate [3] is below 1e-05 s⁻¹. Moreover, in the data set with glucosamine-6-phosphate [5], the “self-cleavage kobs at 2500 uM GlcN6P” value was below 1e-05 s⁻¹. Also, the “self-cleavage kobs at 10000 uM GlcN6P” value with glucosamine-6-phosphate [2] is below 1e-05 s⁻¹.

AUAAACGCGCCAGACCUACAGAAAUGUAGUUGACAAGGAGGAGGUUUAUCGAAUUUUCGGCGGAUGCCUCCAAA [A6C A15C G35A]: the “self-cleavage kobs at 640 uM GlcN6P” value with glucosamine-6-phosphate [4] is below 1e-05 s⁻¹. Besides, the “self-cleavage kobs at 2500 uM GlcN6P” value in the data set with glucosamine-6-phosphate [5] is below 1e-05 s⁻¹.

AUAAACGCGCCAGAACUACAGAAAUGUAGUUGACGAGGGAGAGGUUUGUCGAAUUUUCGGCUUAUGCCUCCAAA [A6C A39G G40A A48G G62U G63U]: in the data set with glucosamine-6-phosphate [4], the “self-cleavage kobs at 640 uM GlcN6P” value is below 1e-05 s⁻¹. The “self-cleavage kobs at 2500 uM GlcN6P” value with glucosamine-6-phosphate [5] is below 1e-05 s⁻¹.

For AUAAACGCGCCAGAACUACAGAAAUGUAGUUGUCGGGGAGAAGGUUUAUCGAUUUUCCGGCGGAUGCCUCCAAA [A6C A33U A36G G41A A53U U57C], the “self-cleavage kobs at 640 uM GlcN6P” value in the data set with glucosamine-6-phosphate [4] was below 1e-05 s⁻¹. The “self-cleavage kobs at 160 uM GlcN6P” value in the data set with glucosamine-6-phosphate [3] was below 1e-05 s⁻¹.

Regarding AUAAAAGCGCCAGAACUACAGAAAUGUAGUUGACGAGGAGGAGGUUUAUCGAAUUUUCGGCGGCUGCCUUUAAA [A64C C70U C71U], the “self-cleavage kobs at 40 uM GlcN6P” value in the data set with glucosamine-6-phosphate [1] was below 1e-05 s⁻¹.

As for AUAAAAGCGCCAGAACUACAGAAAUGUAGUUGACGAGGAGGAGGUUUAUCGAAUUUUCGGCGGCUGCCUACAAA [A64C C70A], the “self-cleavage kobs at 40 uM GlcN6P” value with glucosamine-6-phosphate [1] is below 1e-05 s⁻¹. Further, the “self-cleavage kobs at 10000 uM GlcN6P” value in the data set with glucosamine-6-phosphate [2] is below 1e-05 s⁻¹.

In the case of AUAAAAGCGCCAGAACUACAGAAAUGUAGUUGACGAGGAGGAGGUUUAUCGAAUUUUCGGCGGCUGCCUGCAAA [A64C C70G], the “self-cleavage kobs at 40 uM GlcN6P” value with glucosamine-6-phosphate [1] was below 1e-05 s⁻¹. Further, in the data set with glucosamine-6-phosphate [3], the “self-cleavage kobs at 160 uM GlcN6P” value was below 1e-05 s⁻¹. In addition, the “self-cleavage kobs at 10000 uM GlcN6P” value in the data set with glucosamine-6-phosphate [2] is below 1e-05 s⁻¹.

Take AUAAAAGCGCCAGAACUACAGAAAUGUAGUUGACGAGGAGGAGGUUUAUCGAAUUUUCGGCGGGUGCCUACAAA [A64G C70A]: the “self-cleavage kobs at 40 uM GlcN6P” value with glucosamine-6-phosphate [1] was below 1e-05 s⁻¹.

On to AUAAAAGCGCCAGAACUACAGAAAUGUAGUUGACGAGGAGGAGGUUUAUCGAAUUUUCGGCGGCUGACUCCAAA [A64C C67A], for which the “self-cleavage kobs at 40 uM GlcN6P” value with glucosamine-6-phosphate [1] was below 1e-05 s⁻¹. Further, the “self-cleavage kobs at 2500 uM GlcN6P” value with glucosamine-6-phosphate [5] is below 1e-05 s⁻¹. For the same variant, the “self-cleavage kobs at 10000 uM GlcN6P” value with glucosamine-6-phosphate [2] was below 1e-05 s⁻¹.

For the variant AUAAAAGCGCCAGAACUACAGAAAUGUAGUUGACGAGGAGGAGGUUUAUCGAAUUUUCGGCGCAUGCGUCCAAA [G63C C68G], the “self-cleavage kobs at 40 uM GlcN6P” value with glucosamine-6-phosphate [1] is below 1e-05 s⁻¹. In addition, the “self-cleavage kobs at 10000 uM GlcN6P” value in the data set with glucosamine-6-phosphate [2] is below 1e-05 s⁻¹.

Take AUAAAAGCGCCAGAACUACAGAAAUGUAGUUGACGAGGAGGAGGUUUAUCGAAUUUUCGGCGUAUACCUCCAAA [G63U G66A]: the “self-cleavage kobs at 40 uM GlcN6P” value with glucosamine-6-phosphate [1] was below 1e-05 s⁻¹. In addition, the “self-cleavage kobs at 640 uM GlcN6P” value with glucosamine-6-phosphate [4] was below 1e-05 s⁻¹. Besides, the “self-cleavage kobs at 10000 uM GlcN6P” value in the data set with glucosamine-6-phosphate [2] was below 1e-05 s⁻¹.

(Values after the supplement of paper PMC7125110.)
